From US12297265B2, “Antibody and use thereof” (SICHUAN KELUN-BIOTECH BIOPHARMACEUTICAL CO., LTD., priority 2018, dated 2025) come the findings set out here.

Marks after values point to notes of the source that are not given here.

In assay [1] the target is T1, human Claudin18.2 (Homo sapiens, UniProt P56856). As to the kind of experiment: FACS affinity of chimeric antibodies to Ba/F3-Claudin18.2 cells. The assay is classed as binding. More on the design: expressed in transfected cells; host or cells: Ba/F3 (BaF/3, DSMZ ACC300), hygromycin-selected monoclonal line. An excerpt: The amino acid sequence of the light chain variable region of 1E9.2, 2C6.9, 6B9.22, 9C8.1, 16A9.11, 19G10.14 or 19H11.6 was linked to the amino acid sequence of the light chain constant region κ (SEQ ID NO: 43) respectively; the amino acid sequence of the heavy chain variable region was linked to the amino acid sequence of IgG1 heavy chain constant region (SEQ ID NO: 42) respectively, to construct the chimeric antibody. Codon optimized cDNA was synthesized and cloned to pcDNA3.4 (synthesized by Nanjing Genscript Biotech Corporation). The pcDNA3.4 plasmids coding the light chain and heavy chain of each antibody were co-transfected to Expi293F cells (purchased from Thermo Fisher). The antibodies were purified from culture supernatant by protein A (MabSelect SuRe, GE). And the purified chimeric antibodies were named 1E9.2-hz00, 2C6.9-hz00, 6B9.22-hz00, 9C8.1-hz00, 16A9.11-hz00, 19G10.14-hz00 and 19H11.6-hz00.
The affinity of the anti-Claudin18.2 chimeric antibodies to Ba/F3-Claudin18.2 cells were determined. Specifically, Ba/F3-Claudin18.2 cells (60000 in 10 ul buffer) were incubated with serially diluted anti-human Claudin18.2 chimeric antibodies or the control antibody IMAB362 on ice for 30 min, followed by washing with FACS buffer (PBS+2% FBS) twice and incubating with fluorescent goat-anti-human secondary antibody (Thermo Fisher Sci., Cat: A-21445) on ice for another 30 min. The cells were then analyzed by FACS.

In the next assay the test system is Ba/F3-Claudin 18.2 cells. The experiment in a line: ADCC activity on Ba/F3-Claudin 18.2 cells (NK-92MI_mCD16, CytoTox-Glo). The conditions noted are these: Ba/F3-Claudin 18.2 target cells, NK-92MI_mCD16 effector cells, 6h. The class given is cell-based. The procedure: In order to evaluate the ADCC activity, ten thousand Ba/F3-Claudin18.2 cells were cultured in 40 μl NK-92 media. Antibodies were serially diluted in 10 μl PBS. Fifty thousand NK-92MI_mCD16 cells in 50 μl NK-92 media were added and the reactions were incubated at 37° C. for 6h. 33.3 μl CytoTox-Glo (Promega, G9290) was added to each reaction […].

For assay [2], the target named is T1, human Claudin18.2. As to the kind of experiment: Affinity of chimeric and humanized antibodies to Ba/F3-Claudin 18.2 cells (IntelliCyt). The assay is classed as binding. More on the design: expressed in transfected cells; host or cells: Ba/F3 (BaF/3, DSMZ ACC300), hygromycin-selected monoclonal line. An excerpt: In order to evaluate the anti-Claudin18.2 humanized antibodies, codon optimized cDNAs of the heavy chains and the light chains of the candidate humanized antibodies from Example 6 were synthesized and ligated into pcDNA3.4 (by Nanjing Genscript Biotech Corporation). Expi293F cells (purchased from Thermo Incorporation) were co-transfected with pcDNA3.4 coding the heavy chain and light chain of each antibody. The antibodies were purified from the supernatant using protein A (MabSelect SuRe, GE). The affinity of the humanized antibodies to Claudin18.2 was determined using Ba/F3-Claudin18.2 cells which over-expressed human Claudin18.2. Ba/F3-Claudin18.2 cells (60000 in 10 ul buffer) were incubated with purified humanized antibodies on ice for 30 min, followed by washing with buffer (PBS+2% FBS) twice and addition of Alexa647-labeled goat-anti-human IgG Fc antibody (1:500 dilution). The cells were incubated on ice for another 30 min and analyzed by IntelliCyt.

B1: 19H11.6-hz00: chimeric antibody: 19H11.6 variable regions with human IgG1 and κ constant regions (antibody)
heavy: EVMLVESGGGLVKPGGSLKLSCAASGFSFSNSAMSWVRQTPEKRLEGVATISSGDSFTYYPDTVKGRFTISRDNAKNSLYLQMSRLRSEDTAVYYCARQGYGNALDYWGQGTSVTVSS[sequence of human IgG1 constant region omitted]
light: DIVMTQSPSSLTVTAGEKVTMTCKSSQSLLNSGNQKNYLTWYQQKPGQPPKLLIYWSSTRESGVPDRFTGSGSGTDFTLTISSVQAEDLAVYYCQNDYYYPLTFGAGTKLELKRTVAAPSVFIFPPSDEQLKSGTASVVCLLNNFYPREAKVQWKVDNALQSGNSQESVTEQDSKDSTYSLSSTLTLSKADYEKHKVYACEVTHQGLSSPVTKSFNRGEC
Consider B1, for which, in the assay with human Claudin18.2 [1], the “Max MFI” value was 12.97 ×10^6.

B2: 9C8.1-hz00: chimeric antibody: 9C8.1 variable regions with human IgG1 and κ constant regions (antibody)
heavy: QVQLQQSGAELVRPGSSVKISCKASGYAFSNYWMNWVKQRPGQGLEWIGQIYPGDGDTNYNGKFKGKATLTTDKSSSTAYMQLSSLTSEDSAVYFCARLYYGNSFAYWGQGTLVTVSS[sequence of human IgG1 constant region omitted]
light: DIVMTQSPSSLTVTAGEKVTVSCKSSQSLLNSGNQKNYLTWYQQKPGQPPKLLIYWASTRESGVPDRFTGSGSGTDFTLTISSVQAADLAIYYCQNDYFYPFTFGGGTKLEIKRTVAAPSVFIFPPSDEQLKSGTASVVCLLNNFYPREAKVQWKVDNALQSGNSQESVTEQDSKDSTYSLSSTLTLSKADYEKHKVYACEVTHQGLSSPVTKSFNRGEC
B2: the “Max MFI” value in the assay with human Claudin18.2 [1] is 14.41 ×10^6.

B3: 6B9.22-hz00: chimeric antibody: 6B9.22 variable regions with human IgG1 and κ constant regions (antibody)
heavy: QVQLQQSGAELVKPGASVKMSCKAFGYTFTSYPIEWMKQNHGKSLEWIGNFHPYNDDTKYNEKFKGKAKLTVEKSSSTVYLELSRLTSDDSAVYYCARTYYGNSFAYWGQGTLVTVSS[sequence of human IgG1 constant region omitted]
light: DIVMTQSPSSLTVTAGEKVTMSCKSSQSLLNSGNQKNYLTWYQQKPGQPPKLLIYWASSRDSGVPHRFTGSGSGTDFTLTISSVQAEDLAFYYCQNDYFYPFTFGAGTKLELKRTVAAPSVFIFPPSDEQLKSGTASVVCLLNNFYPREAKVQWKVDNALQSGNSQESVTEQDSKDSTYSLSSTLTLSKADYEKHKVYACEVTHQGLSSPVTKSFNRGEC
For the molecule B3, the “Max MFI” value with human Claudin18.2 [1] is reported as 16.70 ×10^6.

B4: 1E9.2-hz00: chimeric antibody: 1E9.2 variable regions with human IgG1 (SEQ ID NO: 42) and κ (SEQ ID NO: 43) constant regions (antibody)
heavy: EVMLVESGGGLVKPGGSLKLSCAASGFSFSNSAMSWVRQTPEKRLEGVATISSGDSYTYYPDSVKGRFTISRDNAKNSLYLQMSSLRSEDTAVYYCARQGYGNALDYWGQGTSVTVSS[sequence of human IgG1 constant region omitted]
light: DIVMTQSPSSLTVTAGEKVTMSCKSSQSLLNSGNQKNYLTWYQQKPGQPPKLLIYWSSTRESGVPDRFTGSGSGTDFTLTISSVQAEDLAVYYCQNDYYYPLTFGAGTKLELKRTVAAPSVFIFPPSDEQLKSGTASVVCLLNNFYPREAKVQWKVDNALQSGNSQESVTEQDSKDSTYSLSSTLTLSKADYEKHKVYACEVTHQGLSSPVTKSFNRGEC
For the molecule B4, in the assay with human Claudin18.2 [1], the “Max MFI” value is on record as 11.8 ×10^6. Also, in the assay on Ba/F3-Claudin 18.2 cells, the “ADCC EC50” value was 0.049* μg/mL and the Max killing rate is on record as 59.83* %. Moreover, in the assay with human Claudin18.2 [2], the “Max MFI” value is reported as 11.17 ×10^6.

B5: 16A9.11-hz00: chimeric antibody: 16A9.11 variable regions with human IgG1 and κ constant regions (antibody)
heavy: EVMLVESGGGLVKPGGSLKLSCAASGFSFSNSAMSWVRQTPEKRLEGVATISSGDSYTYYPDSVKGRFTISRDTAKNSLYLQMSSLRSEDTAVYYCTRQGYGNAMDYWGQGTSVTVSS[sequence of human IgG1 constant region omitted]
light: DIVMTQSPSSLTVTAGEKVTMSCKSSQSLLNSGNQKNYLTWYQQKPGQPPKLLIYWSSTRESGVPDRFTGSGSGTDFTLTISSVQAEDLAVYYCQNDYYYPLTFGAGTKLELKRTVAAPSVFIFPPSDEQLKSGTASVVCLLNNFYPREAKVQWKVDNALQSGNSQESVTEQDSKDSTYSLSSTLTLSKADYEKHKVYACEVTHQGLSSPVTKSFNRGEC
Consider B5, for which the “Max MFI” value in the assay with human Claudin18.2 [1] is 12.40 ×10^6.
